From patent publication US20090263341A1, “SOFT ANTICHOLINERGIC ESTERS” (priority 2005, published 2009)

Legend:
[1] = tested on: carbachol-induced bradycardia (mainly muscarinic M2 receptors); test: Carbachol induced bradycardia in anesthetized rats; assay type: in vivo, rat; conditions: i.v.
rabbit eyes (pupil size) = tested on: rabbit eyes (pupil size); design: AUC^eff0-168 h: unit not given beside the values; conditions: conc. 0.5%

Compound | bradycardia protective effect [1] | AUC^eff0-168 h (rabbit eyes (pupil size)) | Rmax (%) (rabbit eyes (pupil size); 0.1 mL topical, maximum % change in pupil size)
CCOC(=O)C[N+]1(C)[C@@H]2C[C@@H](OC(=O)C(O)(c3cccs3)c3cccs3)C[C@H]1[C@@H]1O[C@@H]12 (stereo partly drawn) [Compound (w), 6β,7β-epoxy-3,8-hydroxy-8-ethoxycarbonylmethyl-8-methyl-1αH,5αH-tropaniun bromide, di-2-thienylglycolate] | less active than an equimolar dose of atropine |  | 
tropicamide |  | 451 ± 121 | 44.64 ± 11.17
